Laboratory results taken from PMC2855512, “Interaction of connexin43 and protein kinase C-delta during FGF2 signaling” (BMC Biochemistry, 2010).

Target: T1, protein kinase C-delta (mouse (endogenous in MC3T3), UniProt P28867 1-674)
T1 construct: protein kinase C-delta (PKCδ), novel PKC; endogenous in MC3T3-E1 mouse osteoblasts; also called PKCδ; source: endogenous, MC3T3 whole cell extract
Assay: co-IP; endogenous proteins in MC3T3 whole cell lysates (500 ug; IP buffer 50 mM Tris pH 8.0, 150 mM NaCl, 1.0% Triton-X-100), 2 ug antibody overnight at 4°C, protein A/G-agarose, five washes in cold PBS; western blot of supernatant and bead fractions; cells untreated or treated with 5 ng/ml FGF2 (0, 10, 20 min)
Settings: partners not purified

Sequence of protein kinase C-delta (P28867 whole entry, stated change not applied): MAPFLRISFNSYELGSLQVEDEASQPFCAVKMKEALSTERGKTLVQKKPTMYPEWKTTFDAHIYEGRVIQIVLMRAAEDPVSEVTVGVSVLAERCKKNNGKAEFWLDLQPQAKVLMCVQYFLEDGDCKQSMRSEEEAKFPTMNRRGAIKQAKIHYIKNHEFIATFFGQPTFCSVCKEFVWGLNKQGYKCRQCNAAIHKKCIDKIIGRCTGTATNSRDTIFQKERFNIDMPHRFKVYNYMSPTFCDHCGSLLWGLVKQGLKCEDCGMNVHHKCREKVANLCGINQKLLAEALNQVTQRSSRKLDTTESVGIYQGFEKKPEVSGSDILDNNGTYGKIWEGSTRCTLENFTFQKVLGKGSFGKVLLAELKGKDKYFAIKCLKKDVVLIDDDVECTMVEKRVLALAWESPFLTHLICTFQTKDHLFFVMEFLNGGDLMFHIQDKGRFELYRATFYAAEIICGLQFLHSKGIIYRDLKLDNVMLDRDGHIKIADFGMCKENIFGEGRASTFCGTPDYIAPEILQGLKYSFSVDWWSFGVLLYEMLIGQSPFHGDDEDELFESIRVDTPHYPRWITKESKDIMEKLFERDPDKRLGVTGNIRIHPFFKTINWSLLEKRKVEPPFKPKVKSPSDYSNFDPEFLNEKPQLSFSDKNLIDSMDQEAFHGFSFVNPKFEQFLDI

fold decrease in co-immunoprecipitated Cx43 versus input after 20 minutes of FGF2, relative to untreated: ~1.5 fold
fold increase in co-immunoprecipitated Cx43 versus input after 10 minutes of FGF2, relative to untreated: ~1.5 fold
B1: connexin43 (natural protein)
chain: not shown
notes: connexin43 (Cx43), gap junction protein encoded by GJA1; endogenous in MC3T3-E1 mouse osteoblasts; Total Cx43 as detected with anti-Cx43 antibodies; the ~46 kD phosphorylated form is written apart as m6; also called Cx43; non-phosphorylated (NP) form, ~43 kD; source: endogenous, MC3T3 whole cell extract
